According to PubChem BioAssay AID902 (National Center for Advancing Translational Sciences (NCATS), 2007):
Out of some 130,000 compounds screened, about 1,900 (1.5%) were called active. Inconclusive means that the source gave no clear call. Such entries were picked first, then a sample of the others. Calls come from the whole dose curve; as a rule, active = well fitted cell-killing curve with a large enough effect; inconclusive = small, poorly fitted or top-dose-only effect; inactive = no such curve, though single readings can be large or run the other way. Potencies of inconclusive entries are doubtful fits and often do not repeat. More than one record can exist for a structure, and the calls need not agree.

Test: qHTS Screen for Compounds that Selectively Target Cancer Cells with p53 Mutations: Cytotoxicity of p53ts Cells at the Nonpermissive Temperature; note: nearly all actives have a fitted effect of over 55% in size
Conditions: H1299-p53A138V viability at 39C, ATP luminescence, 24 h; activity change, negative = cell killing: at 46.1 µM (top of the series)
% is set by controls: 0 for no effect and ±100 for the full control effect; potency is the fitted concentration of half-maximal effect; tags give direction and shape of the fitted curve.

Structure (SMILES)	Potency	activity change, negative = cell killing
COc1cccc(C(=O)Nc2ccccc2-c2nnc(-c3cc(OC)ccc3Br)o2)c1	inactive	–
Cc1cc(C)nc(Nc2n[nH]c(-c3ccccc3Br)n2)n1	inconclusive: 25.1 µM [cytotoxic, single point]	–
Cc1nn2c(=O)cc(COC(=O)c3cccc(NC(=O)c4ccc(C(C)(C)C)cc4)c3)nc2s1	active: 2.51 µM	–
Cc1ccc(-n2c(=O)c3ccc(C(=O)NCc4ccccc4Cl)cc3n(CC(=O)Nc3cccc(F)c3)c2=O)cc1	inconclusive: 31.6 µM [cytotoxic, single point]	–
CCOc1ccc2nc(N3CCCC(C(=O)Nc4cccc(Cl)c4C)C3)sc2c1 (stereo unspecified)	inconclusive: 15.8 µM [cytotoxic, partial curve, poor fit]	–
COc1ccc(Cn2c(SCC(N)=O)nc3c(sc4ccccc43)c2=O)cc1	active: 12.6 µM	–
Cc1cnc2c(c1SCC(=O)Nc1ccc(F)cc1F)c(=O)n(C)c(=O)n2C	inconclusive: 0.0063 µM [cytotoxic, full curve, poor fit]	–
Cc1ccc(-c2nc(-c3cccnc3)no2)c(C)c1	inconclusive: 12.6 µM [cytotoxic, partial curve]	–
CCCCOc1ccc(NC(=O)Cn2nnnc2-c2ccccc2F)cc1	–	inconclusive: -33.9% [cytotoxic]
Cc1ccc(C)c(NC(=O)C(=O)NCCc2csc3nc(-c4ccccc4C)nn23)c1	inconclusive: 10 µM [cytotoxic, partial curve]	–
c1ccc2sc(-c3ccc4c(c3)OCO4)nc2c1	active: 7.94 µM	–
O=C(CSc1nc2c(c(=O)[nH]1)CCCC2)Nc1ccc(Br)cc1	inactive	–
Cc1ccc(NC(=O)Cn2c(=O)n(CCC(=O)NCc3ccc4c(c3)OCO4)c(=O)c3sccc32)c(C)c1	inconclusive: 31.6 µM [cytotoxic, single point]	–
CCOc1ccc2nc(NC(=O)c3cnccn3)sc2c1	inconclusive: 1.26 µM [cytotoxic, partial curve]	–
CCOC(=O)c1c(C)[nH]c(C(=O)OC/C(O)=C(\C#N)c2nc3ccccc3[nH]2)c1C	inconclusive: 10 µM [cytotoxic, partial curve]	–
COCC(=O)Nc1nc2ccc(C)cc2s1	inconclusive: 10 µM [cytotoxic, partial curve]	–
COc1ccccc1Nc1nn2c(=O)c3ccc(C(=O)NCc4ccc(F)cc4)cc3nc2s1	active: 3.16 µM	–
COc1c(O)c(O)cc2c1oc1c3ccccc3oc(=O)c21	inactive	–
CCN1CCN(c2ncnc3c2cnn3-c2ccc(C)cc2)CC1	inconclusive: 31.6 µM [cytotoxic, single point]	–
COc1ccc(-c2n[nH]c3c2C(c2ccc(O)cc2)N(c2ccc(Br)cc2)C3=O)cc1 (stereo unspecified)	inconclusive: 15.8 µM [cytotoxic, partial curve]	–
COc1ccc(-c2noc(-c3cccc(OC)c3OC)n2)cc1OC	inconclusive: 12.6 µM [cytotoxic, partial curve]	–
CC(C)c1ccc(NC(=O)c2cc(S(=O)(=O)NCc3ccccc3Cl)ccc2F)cc1	inconclusive: 31.6 µM [cytotoxic, partial curve, poor fit]	–
O=C(CN1C(=O)COc2ccccc21)N(Cc1cccnc1)Cc1ccccc1F	inactive	–
O=C(Nc1ccc(N2CCCCC2)cc1)c1cncc(Br)c1	inconclusive: 31.6 µM [cytotoxic, single point]	–

Structure (SMILES)	Potency	activity change, negative = cell killing
CCOC(=O)C(Cc1c[nH]c2ccccc12)NC(=O)COc1ccc(Cl)c(C)c1 (stereo unspecified)	inconclusive: 20 µM [cytotoxic, single point]	–
COc1ccc(C(c2c(O)ccc3ccccc23)N2CCOCC2)c(OC)c1 (stereo unspecified)	inconclusive: 31.6 µM [cytotoxic, single point]	–
CCc1ccc(Sc2cc(C(=O)NC(C)CC)c3ccccc3n2)cc1 (stereo unspecified)	inconclusive: 31.6 µM [cytotoxic, single point]	–
Cc1cccc(C)c1Nc1nc2ccccc2nc1NS(=O)(=O)c1ccccc1	inactive	–
CCSc1nc2c([nH]c3ccccc32)c(=O)n1C	inactive	–
Clc1ccccc1C(c1ccccc1)(c1ccccc1)n1ccnc1	active: 25.1 µM	–
Fc1ccc(Cc2cn3cc(-c4ccccc4)nc3s2)cc1	active: 2.51 µM	–
CCOC(=O)c1ccc(NC(=O)c2csnn2)cc1	inconclusive: 1 µM [cytotoxic, partial curve]	–
COc1ccc(CNC(=O)c2ccc3c(c2)CCN3S(=O)(=O)c2ccc(C)cc2)cc1	inactive	–
Cc1ccc(/C=N/NC(=O)C2=NNC(c3ccccc3)(c3ccccc3)C2)c(O)c1	inconclusive: 5.62 µM [cytotoxic, single point]	–
Cc1c(C(=O)Nc2ccc(C(C)C)cc2)sc2nc[nH]c(=O)c12	inconclusive: 12.6 µM [cytotoxic, partial curve]	–
O=C(Nc1ccc(-c2cn3ccsc3n2)cc1)C1CCCC1	active: 2.51 µM	–
OC[C@@H]1CCC[C@H](n2cnc3c(=S)nc[nH]c32)O1	–	inactive: -1.4% [at 9.22 µM]
CCN(c1ccccc1)S(=O)(=O)c1ccc(-c2cc(C)no2)s1	inconclusive: 0.0794 µM [cytotoxic, full curve, poor fit]	–
CCn1cnc2c(=O)oc3ccc(S(=O)(=O)Nc4ccc(OC)cc4)cc3c21	inconclusive: 20 µM [cytotoxic, single point]	–
CCC1CCCCN1S(=O)(=O)c1cc(C(=O)Nc2ccc(C)c(F)c2)ccc1F (stereo unspecified)	inconclusive: 0.005 µM [cytotoxic, full curve, poor fit]	–
O=C(CSc1nnc(-c2ccccc2)o1)Nc1ccccc1F	active: 10 µM	–
Cc1ccc(Cn2cc(C(=O)c3ccc4c(c3)OCO4)c(=O)c3cc(C)ccc32)cc1	inactive	–
CCc1ccccc1NC(=O)c1nnn(Cc2ccc(Cl)cc2)c1N	inactive	–
COc1ccccc1CNc1cc(C)nc2nc(-c3ccc(C)cc3)nn12	inconclusive: 2 µM [cytotoxic, full curve, poor fit]	–
COc1ccc(-c2nc(C)c(CCNC(=O)c3cccs3)s2)cc1OC	inconclusive: 10 µM [cytotoxic, partial curve]	–
COC(=O)c1c(NC(=O)c2nc3ccccc3s2)sc2c1CCN(C(C)=O)C2	inconclusive: 20 µM [cytotoxic, single point]	–
Cc1c(-c2cccc(NC(=O)Nc3ccc(Cl)cc3)c2)nc2ncccn12	inconclusive: 12.6 µM [cytotoxic, partial curve]	–
CC(C)(C)C1CCc2c(sc3nc(-c4cc5ccccc5oc4=O)[nH]c(=O)c23)C1 (stereo unspecified)	inconclusive: 1.41 µM [cytotoxic, partial curve, poor fit]	–

Structure (SMILES)	Potency	activity change, negative = cell killing
c1ccc(-c2noc(-c3cccnc3NCc3ccco3)n2)cc1	inactive	–
Cc1ccc(NC(=O)Cn2c(=O)oc3cc(S(=O)(=O)N4CCCCC4)ccc32)c(Cl)c1	inconclusive: 20 µM [cytotoxic, single point]	–
Cc1ccc(-c2nc(CNC(=O)Nc3ccccc3)c(C)o2)cc1	inconclusive: 31.6 µM [cytotoxic, single point]	–
COCCCNC(=O)c1cnc2sc(N3CCCCCC3)nn2c1=O	inactive	–
CCCCN(CCCNC(=O)CN1N=C(c2ccc(C)cc2)CCC1=O)c1ccccc1	inconclusive: 25.1 µM [cytotoxic, single point]	–
Cc1ccccc1Nc1nn2c(=O)c3ccc(C(=O)NCCc4ccc(Cl)cc4)cc3nc2s1	inconclusive: 20 µM [cytotoxic, partial curve]	–
COc1ccc(NC(=O)c2ccc3nccnc3c2)cc1	inconclusive: 12.6 µM [cytotoxic, partial curve]	–
O=C(CSc1ncc(-c2ccccc2)[nH]1)Nc1ccc(Cl)cc1	inconclusive: 20 µM [cytotoxic, single point]	–
Oc1ccc(Nc2nc(NCC3CCCO3)c3ccccc3n2)cc1 (stereo unspecified)	inactive	–
Cc1oc2ccc(O)c(CN3CCCC3)c2c1C(=O)Nc1ccc(C(C)C)cc1	inconclusive: 12.6 µM [cytotoxic, partial curve]	–
C#CCOc1ccc(-c2nnc(Nc3ccc(NC(C)=O)cc3)c3ccccc23)cc1	inactive	–
COc1cccc2c(C)nc(Nc3nc(CSc4nnc(C)s4)cc(=O)[nH]3)nc12	inactive	–
CC(=O)N1CCC2(CCCN(c3ccc(-c4ccccc4)cc3)C2)CC1	inactive	–
NS(=O)(=O)c1ccc(CCNc2ncnc3c2cnn3-c2cccc(Cl)c2)cc1	inconclusive: 5.01 µM [cytotoxic, full curve]	–
CCSC1=C(C#N)C2(CCCCC2)C(C#N)=C(N)N1	inconclusive: 10 µM [cytotoxic, partial curve]	–
CCOC(=O)CNc1ncnc2nc[nH]c12	inconclusive: 7.94 µM [cytotoxic, partial curve]	–
O=C(CSc1nc(-c2ccco2)cc(C(F)(F)F)n1)Nc1ccc2c(c1)OCO2	inactive	–
CCOC(=O)CN(Cc1ccccc1)C(C(=O)NC1CCCCC1)c1ccc(OC)cc1 (stereo unspecified)	inconclusive: 12.6 µM [cytotoxic, partial curve]	–
COc1ccc(Cl)cc1NC(=O)c1ccc2c(c1)CCN2S(C)(=O)=O	inactive	–
COc1cccc(Nc2sc(C(=O)c3ccc(Cl)cc3)c(N)c2C(=O)NCc2ccc(C)cc2)c1	inactive	–
COc1cccc(OCc2nc3ccccc3[nH]2)c1	inconclusive: 15.8 µM [cytotoxic, partial curve]	–
C/C(N)=C(/C#N)C(=O)CSc1nnc(NC(C)C)s1	inactive	–
COc1ccc(-n2c(=O)c(-c3cccs3)nc3cnc(N4CCNCC4)nc32)cc1	inconclusive: 31.6 µM [cytotoxic, single point]	–
